From patent US20090176209A1 (DOMANTIS, published 2009)

Target: T1, BSA (Sigma), biotinylated (UniProt P02769)
T1 construct: Negative control surface
Assay: protein-DNA complex captured on biotinylated protein in streptavidin-coated PCR tubes; co-captured DNA detected by PCR and gel

T1 sequence (P02769 25-607 limits assumed): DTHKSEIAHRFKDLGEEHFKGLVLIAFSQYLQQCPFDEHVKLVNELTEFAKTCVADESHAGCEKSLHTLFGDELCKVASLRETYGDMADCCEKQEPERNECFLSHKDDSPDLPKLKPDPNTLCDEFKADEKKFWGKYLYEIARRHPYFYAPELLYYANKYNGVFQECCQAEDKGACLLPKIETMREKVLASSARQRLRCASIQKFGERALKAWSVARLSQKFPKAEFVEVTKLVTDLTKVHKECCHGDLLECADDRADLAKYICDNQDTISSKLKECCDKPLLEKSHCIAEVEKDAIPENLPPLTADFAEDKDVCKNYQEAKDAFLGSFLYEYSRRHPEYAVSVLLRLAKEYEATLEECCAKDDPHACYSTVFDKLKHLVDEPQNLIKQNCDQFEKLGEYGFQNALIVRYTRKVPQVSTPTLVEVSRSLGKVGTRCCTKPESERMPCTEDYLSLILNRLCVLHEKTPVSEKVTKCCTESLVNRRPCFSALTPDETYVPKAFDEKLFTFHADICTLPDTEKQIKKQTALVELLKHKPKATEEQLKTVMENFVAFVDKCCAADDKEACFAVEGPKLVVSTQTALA

B1: scFv(31IJ1)-scArc fusion protein (pIE7a^nA-scFv(31IJ1), n=1-4) (scFv)
chain: MAEVQLLESGGGLVQPGGSLRLSCAASGFTFSSYAMSWVRQAPGKGLEWVSGINHAGVRTWYADSVKGRFTISRDNSKNTLYLQMNSLRAEDTAVYYCAKRKVGFDYWGQGTLVTVSSGGGGSGGGGSGGGGST[about 100 residues left out here]KEAAAKEAAAKEAAAKEAAAKEAAAKEAAAGGGSGGGHMKGMSKMPQFNLRWPREVLDLVRKVAEENGRSVNSEIYQRVMESFKKEGRIGAGGGSGGGSGGGSGGGHMKGMSKMPQFNLRWPREVLDLVRKVAEENGRSVNSEIYQRVMESFKKEGRIGAGGGSGGGSYPYDVPDYA
notes: In vitro translated in the presence of 3F10 αHA mAb, assayed as protein-DNA complex with 1-4 Arc operators; also called scFv-scArc; scFv-scArc fusion protein
binding result: no binding
